These are yes or no findings as the source states them, for the method shown. For part of these data: In cells and extracts the contact can be indirect. Some results given as binding are weak or reduced against the parent protein; the word gives no strength. For part of these data: Where a sequence is shown, tags or fusion partners need not be part of it.
Assays:
[1] = target: STAT2 (endogenous) (human (endogenous in HEp-2 and HeLa)) (UniProt P52630); test: co-IP; immunoprecipitation with STAT1, STAT2 or IRF9 antibodies from nuclear extracts of HeLa cells treated with PBS or human IFNα (500U/mL) for 2 h or 4 h; blot for endogenous Bclaf1
[2] = target: Flag-tagged Bclaf1-F2 (236–620) (UniProt Q9NYF8); test: co-IP; HEK293T cells co-transfected with Flag-tagged Bclaf1 or its truncations and Ha-tagged STAT1, STAT2 or IRF9; lysis buffer 50 mM Tris-Cl pH 8.0, 150 mM NaCl, 1% Triton X-100
[3] = target: GST-Bclaf1 F2 (UniProt Q9NYF8); test: pull-down; GST pull-down: purified His-STAT1/STAT2/IRF9 incubated with GST-Bclaf1 F2 or GST control in PBS with glutathione agarose, 1 h at 4°C; blots with anti-His or GST antibodies; both purified
[4] = target: Flag-Bclaf1 (endogenous Bclaf1 tagged by CRISPR/Cas9 in the HEp-2-Flag-Bclaf1 cell line) (human (endogenous in HEp-2)) (UniProt Q9NYF8); test: co-IP; Flag-antibody immunoprecipitation from nuclear extracts of HEp-2-Flag-Bclaf1 cells treated with PBS or human IFNα (500U/mL) for 2-4 h; also after si-control or si-STAT2; IgG as control immunoprecipitation

The chains behind the UniProt entries cited, without tags or fusion partners. Where a name states a change or a piece, a line headed by the entry shows the natural chain unless it says otherwise. Residues count along the entry.
UniProt P52630: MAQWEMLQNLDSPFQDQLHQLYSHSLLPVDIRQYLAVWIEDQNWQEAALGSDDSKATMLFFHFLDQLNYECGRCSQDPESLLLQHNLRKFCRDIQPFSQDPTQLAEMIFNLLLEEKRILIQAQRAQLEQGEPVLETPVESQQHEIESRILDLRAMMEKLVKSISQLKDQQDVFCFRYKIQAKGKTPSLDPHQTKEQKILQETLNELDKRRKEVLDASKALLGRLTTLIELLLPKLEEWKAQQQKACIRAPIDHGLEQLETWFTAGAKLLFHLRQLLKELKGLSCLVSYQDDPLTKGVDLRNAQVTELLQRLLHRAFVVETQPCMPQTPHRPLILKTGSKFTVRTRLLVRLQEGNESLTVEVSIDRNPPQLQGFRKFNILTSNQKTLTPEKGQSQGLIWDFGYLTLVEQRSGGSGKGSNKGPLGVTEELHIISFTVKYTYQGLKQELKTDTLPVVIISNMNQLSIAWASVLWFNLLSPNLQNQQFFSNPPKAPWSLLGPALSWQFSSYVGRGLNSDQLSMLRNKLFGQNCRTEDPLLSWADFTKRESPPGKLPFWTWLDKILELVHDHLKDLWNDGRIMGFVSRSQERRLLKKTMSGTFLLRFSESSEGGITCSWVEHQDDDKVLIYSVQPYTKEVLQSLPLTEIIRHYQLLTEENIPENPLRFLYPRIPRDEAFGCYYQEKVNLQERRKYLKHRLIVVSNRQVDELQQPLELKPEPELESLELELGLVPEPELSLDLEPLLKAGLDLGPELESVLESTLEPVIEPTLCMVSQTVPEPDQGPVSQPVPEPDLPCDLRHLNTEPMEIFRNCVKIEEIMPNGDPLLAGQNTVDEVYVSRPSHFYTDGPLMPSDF
UniProt Q9NYF8: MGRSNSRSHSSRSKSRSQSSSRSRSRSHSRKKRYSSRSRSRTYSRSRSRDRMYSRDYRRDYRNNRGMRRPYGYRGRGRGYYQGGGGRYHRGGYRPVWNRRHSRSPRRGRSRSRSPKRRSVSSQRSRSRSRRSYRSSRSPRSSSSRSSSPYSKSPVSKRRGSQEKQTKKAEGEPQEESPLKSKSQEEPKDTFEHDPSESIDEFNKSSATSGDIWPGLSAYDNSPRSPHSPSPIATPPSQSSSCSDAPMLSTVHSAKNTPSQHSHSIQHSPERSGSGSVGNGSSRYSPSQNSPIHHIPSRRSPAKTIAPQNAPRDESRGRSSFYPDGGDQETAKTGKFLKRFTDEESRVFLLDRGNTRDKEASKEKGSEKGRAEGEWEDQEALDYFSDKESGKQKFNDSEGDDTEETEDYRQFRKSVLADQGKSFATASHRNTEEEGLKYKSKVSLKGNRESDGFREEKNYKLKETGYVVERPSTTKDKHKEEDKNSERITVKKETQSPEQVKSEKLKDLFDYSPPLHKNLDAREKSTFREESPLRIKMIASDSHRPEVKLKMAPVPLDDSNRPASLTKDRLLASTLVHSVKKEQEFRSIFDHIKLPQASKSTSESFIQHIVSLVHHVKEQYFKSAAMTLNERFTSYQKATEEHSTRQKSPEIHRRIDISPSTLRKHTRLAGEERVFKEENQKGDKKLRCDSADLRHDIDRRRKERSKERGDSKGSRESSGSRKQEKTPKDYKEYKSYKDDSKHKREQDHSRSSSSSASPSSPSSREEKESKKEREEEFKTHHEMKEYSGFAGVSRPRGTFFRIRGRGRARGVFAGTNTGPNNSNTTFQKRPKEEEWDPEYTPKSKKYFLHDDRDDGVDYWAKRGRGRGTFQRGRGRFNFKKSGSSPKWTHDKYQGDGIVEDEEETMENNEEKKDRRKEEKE
GST-Bclaf1 F2: residues 236-620 of Q9NYF8
UniProt P42224: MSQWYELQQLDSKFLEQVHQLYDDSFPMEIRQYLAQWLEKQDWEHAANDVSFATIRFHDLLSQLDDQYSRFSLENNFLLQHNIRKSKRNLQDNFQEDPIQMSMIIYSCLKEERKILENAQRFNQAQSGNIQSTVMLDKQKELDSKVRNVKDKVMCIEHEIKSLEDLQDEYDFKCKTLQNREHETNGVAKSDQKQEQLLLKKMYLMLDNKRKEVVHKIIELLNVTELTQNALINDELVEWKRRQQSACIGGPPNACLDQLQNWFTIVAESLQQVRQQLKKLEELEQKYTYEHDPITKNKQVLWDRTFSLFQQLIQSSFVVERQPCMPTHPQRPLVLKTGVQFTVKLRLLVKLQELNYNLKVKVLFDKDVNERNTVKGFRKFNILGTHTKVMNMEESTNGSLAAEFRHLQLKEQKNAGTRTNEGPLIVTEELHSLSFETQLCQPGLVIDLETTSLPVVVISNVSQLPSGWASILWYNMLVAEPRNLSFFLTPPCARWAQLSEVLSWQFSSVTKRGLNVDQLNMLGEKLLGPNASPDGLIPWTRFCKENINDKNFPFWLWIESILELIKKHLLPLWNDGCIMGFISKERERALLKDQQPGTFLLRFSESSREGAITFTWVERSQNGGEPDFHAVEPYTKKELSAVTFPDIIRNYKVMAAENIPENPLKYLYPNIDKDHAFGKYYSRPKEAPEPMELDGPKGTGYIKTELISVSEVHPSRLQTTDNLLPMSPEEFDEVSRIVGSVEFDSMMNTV

Molecule: Bclaf1 (endogenous, HeLa) (from UniProt Q9NYF8 1-920)
- binding [1]: binds

Molecule: Ha-tagged STAT2 (pRK5-Ha-STAT2) (from UniProt P52630 1-851)
- binding [2]: binds

Molecule: His-STAT1 (from UniProt P42224 1-750)
- binding [3]: no binding

Molecule: His-STAT2 (from UniProt P52630 1-851)
- binding [3]: binds

Molecule: STAT2 (endogenous) (from UniProt P52630 1-851)
- binding [4]: binds

B1: His-IRF9 (protein, UniProt Q00978 1-393)
chain: MASGRARCTRKLRNWVVEQVESGQFPGVCWDDTAKTMFRIPWKHAGKQDFREDQDAAFFKAWAIFKGKYKEGDTGGPAVWKTRLRCALNKSSEFKEVPERGRMDVAEPYKVYQLLPPGIVSGQPGTQKVPSKRQHSSVSSERKEEEDAMQNCTLSPSVLQDSLNNEEEGASGGAVHSDIGSSSSSSSPEPQEVTDTTEAPFQGDQRSLEFLLPPEPDYSLLLTFIYNGRVVGEAQVQSLDCRLVAEPSGSESSMEQVLFPKPGPLEPTQRLLSQLERGILVASNPRGLFVQRLCPIPISWNAPQAPPGPGPHLLPSNECVELFRTAYFCRDLVRYFQGLGPPPKFQVTLNFWEESHGSSHTPQNLITVKMEQAFARYLLEQTPEQQAAILSLV
- binding [3]: no binding
